{"source": "paper PMC12040169", "about": "(PLOS Biology, 2025)", "note": "This is one part of the list."}
{"system": "T1, C. trachomatis L2/434/Bu expressing GFP (CTL2-GFP)", "T1 construct": "L2/434/Bu GFP intracellular growth in HeLa cells", "design": "species or system HeLa; C. trachomatis total inclusion area by high-content imaging, normalised to DMSO", "conditions": "total inclusion area; 28.5 h, 10 µM; inhibitor", "procedure,_shortened": "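High-content images of fixed, Hoechst-stained infected cultures supply inclusion area and count (growth) plus nuclei number (viability), complementing bulk GFP/resorufin fluorescence. MIC determination is unchanged from the primary assay.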"}
{"compound": "CC1CCCC(C)N1CC(=O)Nc1ccccc1Oc1ccccc1", "note": "(stereo not drawn) [CBK015824C]", "% of control remaining": 61.5481}
{"compound": "O=C(O)c1ccc(/C=N/Nc2nc(N3CCOCC3)nc(N3CCOCC3)n2)cc1", "note": "[CBK262433]", "% of control remaining": 95.1568}
{"compound": "C=CCOc1ccc(CNc2cccc(C(=O)O)c2)cc1OC", "note": "[CBK074468]", "% of control remaining": 89.5918}
{"compound": "Cc1ccc(OCC(=O)NCCCN(C)C)cc1", "note": "[CBK263595]", "% of control remaining": 98.5769}
{"compound": "Cc1ncccc1COC(=O)NCCc1ccccn1", "note": "[CBK200137]", "% of control remaining": 130.443}
{"compound": "CCOC(=O)C(C)N1C(=O)S/C(=C/c2cc(Cl)c(OCC(=O)O)c(Br)c2)C1=O", "note": "(stereo not drawn) [CBK265163]", "% of control remaining": 101.682}
{"compound": "O=c1cc(C(F)F)c2cn(C3CCCC3)nc2[nH]1", "note": "[CBK288016]", "% of control remaining": 95.8646}
{"compound": "O=C(c1n[nH]c2c1CCC2)N1CCC(c2ccccc2)C1", "note": "(stereo not drawn) [CBK281851]", "% of control remaining": 77.7463}
{"compound": "COc1ccc(NC(=O)Nc2nn(Cc3c(F)cccc3Cl)cc2Br)c(OC)c1", "note": "[CBK266834]", "% of control remaining": 109.479}
{"compound": "Cc1ccccc1C(=O)NCC(=O)NCc1csc(-c2ccccc2)n1", "note": "[CBK092334]", "% of control remaining": 116.363}
{"compound": "CCN(Cc1ccccc1)Cc1c(O)ccc2c(=O)c(-c3ccccc3OC)c(C(F)(F)F)oc12", "note": "[CBK265839]", "% of control remaining": 81.9485}
{"compound": "O=C(c1ccc(Cl)cc1)c1ccc(OCC(=O)N2CCN(C(=O)c3ccco3)CC2)cc1", "note": "[CBK295658]", "% of control remaining": 100.897}
{"compound": "Cc1nc(C(=O)NCC2CN3CCCN2CC3)ccc1C(=O)O", "note": "(stereo not drawn) [CBK304242]", "% of control remaining": 68.0649}
{"compound": "CCc1c(C)nc2ccccc2c1SCCC(=O)N(C)C", "note": "[CBK149718T]", "% of control remaining": 105.74}
{"compound": "CN1CCN(C(=O)Nc2cccc(-c3nc(-c4ccc(C#N)cc4)cnc3N)c2)CC1", "note": "[CBK116251]", "% of control remaining": 98.1415}
{"compound": "Cc1cc(C(=O)N2CCn3cc(C(F)(F)F)nc3C2)on1", "note": "[CBK282430]", "% of control remaining": 84.9141}
{"compound": "CCCSc1ncc(Cl)c(C(=O)Nc2ccc(C(=O)OC)cc2)n1", "note": "[CBK268824]", "% of control remaining": 71.7916}
{"compound": "CCN(CC)CCN(CCc1ccc(OC)c(OC)c1)C(=O)Nc1ccc(Cl)cc1", "note": "[CBK160510]", "% of control remaining": 74.0251}
{"compound": "Cc1ccn(-c2ccc(N3CCC(OC4CCCC4)CC3)nn2)n1", "note": "[CBK306301]", "% of control remaining": 30.1611}
{"compound": "O=c1c(N2CCC(Sc3ccccc3)CC2)nccn1Cc1ccc([N+](=O)[O-])cc1", "note": "[CBK153654]", "% of control remaining": 93.3266}
{"compound": "COc1ccc(-c2n[nH]c(=S)n2CC(=O)Nc2ccc(NC(=O)CC(C)C)cc2)cc1", "note": "[CBK295342]", "% of control remaining": 94.3809}
{"compound": "Cc1ccccc1CCNC(=O)CCc1c(C)nc2nc(N)nn2c1C", "note": "[CBK304994]", "% of control remaining": 70.7353}
{"compound": "COc1cc(C=Cc2nc3cc(Cl)ccc3s2)ccc1OCC(=O)O", "note": "[CBK297886]", "% of control remaining": 69.2058}
{"compound": "c1ccc2c(c1)n(CCN1CCOCC1)c1nc(C34CC5CC(CC(C5)C3)C4)cn21", "note": "[CBK278154C]", "% of control remaining": 102.207}
{"compound": "CC(=O)NC1(CC(=O)N2CC[C@H]3NC(=O)COc4ccccc4C/C=C/C[C@H]3C2)CCCCC1", "note": "[CBK292117]", "% of control remaining": 113.503}
{"compound": "Oc1cccc(-c2cncc(NCCCN3CCOCC3)n2)c1", "note": "[CBK037858]", "% of control remaining": 106.369}
{"compound": "O=C(NCc1cccnc1)c1ncoc1-c1cccs1", "note": "[CBK283974]", "% of control remaining": 85.581}
{"compound": "CO[C@@]12CC[C@H](OCC(=O)O)C[C@@H]1N(Cc1c(C)cnn1C)CC2", "note": "[CBK306638]", "% of control remaining": 98.2314}
{"compound": "CC1CCCCN1S(=O)(=O)c1ccc(-n2ncc(Cl)c(Cl)c2=O)cc1", "note": "(stereo not drawn) [CBK305035]", "% of control remaining": 37.1774}
{"compound": "CCCN(C(=O)CCn1c(=O)oc2cc(Cl)ccc21)C1CCNC1", "note": "(stereo not drawn) [CBK304311C]", "% of control remaining": 51.4049}
{"compound": "COc1ccc(CNC(=O)c2cc(S(=O)(=O)N3CCCCC3)cs2)cc1", "note": "[CBK307590]", "% of control remaining": 93.6196}
{"compound": "COCC1CCCN(Cc2cn(C)nc2C(C)(C)C)C1", "note": "(stereo not drawn) [CBK304818]", "% of control remaining": 45.4846}
{"compound": "O=[N+]([O-])c1ccc(CN2CCN(Cc3c[nH]c4ccccc34)CC2)cc1", "note": "[CBK218620]", "% of control remaining": 88.8982}
{"compound": "Nc1ncncc1-c1noc([C@@H]2CCCN2c2ncccn2)n1", "note": "[CBK288901]", "% of control remaining": 102.547}
{"compound": "CC(=O)N1CC[C@H](c2nc3cccc(C(N)=O)c3[nH]2)C1", "note": "[CBK289415]", "% of control remaining": 123.955}
{"compound": "O=[N+]([O-])c1ccc(/C=C/c2nn3c(Cn4cnc5ccccc54)nnc3s2)cc1", "note": "[CBK268273]", "% of control remaining": 111.763}
{"compound": "CCOC(=O)N1CCC(NC(=O)N2CCCC(CO)C2)CC1", "note": "(stereo not drawn) [CBK156345]", "% of control remaining": 69.7181}
{"compound": "COc1ccc2ncc3c(c2c1)NCCNC3=O", "note": "[CBK291168]", "% of control remaining": 96.9026}
{"compound": "COc1ccccc1-c1cnccc1-n1ccnc1", "note": "[CBK177153]", "% of control remaining": 68.4272}
{"compound": "Fc1ccc2[nH]c3c(c2c1)CCN1C(c2ccncc2)N2CCC31CC2", "note": "(stereo not drawn) [CBK284437]", "% of control remaining": 59.4032}
{"compound": "Nc1cc2ccccc2c(-c2ccc3c(c2)OCCCO3)n1", "note": "[CBK085722]", "% of control remaining": 80.0825}
{"compound": "Nc1nc(-c2ccccc2)c(C(=O)Nc2ccccc2)s1", "note": "[CBK058068]", "% of control remaining": 60.444}
{"compound": "COc1ccc2c(c1)CCc1sc(NS(=O)(=O)c3cccc(Cl)c3C)nc1-2", "note": "[CBK200033]", "% of control remaining": 82.6259}
{"compound": "CC(C)c1cc(C(=O)N(Cc2ccccn2)CC2CCCO2)on1", "note": "(stereo not drawn) [CBK306579]", "% of control remaining": 104.86}
{"compound": "S=C(NCc1ccco1)Nc1nn(Cc2ccc(Cl)cc2Cl)cc1Cl", "note": "[CBK267021]", "% of control remaining": 102.922}
{"compound": "COc1ccc(-n2nc(C)c3onc(C)c3c2=O)cc1", "note": "[CBK000853]", "% of control remaining": 85.9007}
{"compound": "Cc1cc(C)c2c(c1)-c1c(ssc1=S)C(C)(C)N2C(=O)CSc1nncn1C", "note": "[CBK263035]", "% of control remaining": 84.404}
{"compound": "CCNC(=O)N[C@H]1[C@H](O)[C@@H](N(CC)CC)[C@@H]2OC[C@H]1O2", "note": "[CBK288816]", "% of control remaining": 102.685}
{"compound": "COc1ccc(-c2nc(CCN)n3ccccc23)cc1", "note": "[CBK035583]", "% of control remaining": 101.044}
{"compound": "O=S(=O)(c1ccc(F)cc1)N1CCCC1c1cccc(Cc2cccc(F)c2)n1", "note": "(stereo not drawn) [CBK286209]", "% of control remaining": 98.9588}
{"compound": "C/C(=N\\NC(=O)c1cccc(Cl)c1)c1ccccc1O", "note": "[CBK261665]", "% of control remaining": 48.5997}
